This passage reports self-cleavage results from the RNAGym collection of RNA variant scans (doi:10.7554/elife.90254).

The source gives no read counts; variants with many changes may rest on few reads.

B1: LINE1-mini (parent)
chain: GGCAGAGCUCAACACAGCGUGGCAAAGUGGCUGUGGCUAGACUGCC

The series covers variants of B1. As to the kind of experiment: self-cleavage, relative activity (ratio to wild type); higher = more cleavage; in vitro, sequencing; the parent is a self-cleaving ribozyme.
With G2A C23U U38C C45U, the self-cleavage is 1.49.

On to G2A A12C G17C G44A, for which the self-cleavage turned out to be 0.04.

For the variant G2A C3A A16U U20A U43A, the self-cleavage is 0.61.

Regarding G2A C3U G7A C8G C15U G35U, the self-cleavage was found to be 0.98.

G1U U9C C18U G44C: the self-cleavage turned out to be 0.

For G2A A14C G30U, the self-cleavage was determined as 0.17.

Take G2A C3G A6C G19A C23U: the self-cleavage worked out at 0.43.

Consider G1U G29C U43A C45U, for which the self-cleavage worked out at 0.

As to G2A C8A A14G, the self-cleavage was determined as 0.26.

Take G1U G7U U20G: the self-cleavage is 0.01.

G1U G19U A24C A26C: the self-cleavage stood at 0.07.

In the case of G2A C31G C37U G40U, the self-cleavage came to 0.12.

As to G2A A12C C31G G35A A39C, the self-cleavage is 0.01.

For G2A C15A C18A C23U, the self-cleavage came out at 0.12.

Take G2A A11U A12U C37U U43G: the self-cleavage is 0.

With G1U G30A A41C, the self-cleavage was 0.02.

For G2A C23G A25U G29A G33A, the self-cleavage came to 0.22.

For G1U U32G G33U, the self-cleavage was 0.05.

Consider G1U G5A C10U C18U A41G, for which the self-cleavage was 0.03.

Consider G1U G27U G35U, for which the self-cleavage was 0.16.

Regarding G1U G17C G35C A41C G44C, the self-cleavage was 0.02.

As for G1U G19U G29A U32A C37G A41U C42G, the self-cleavage was determined as 0.01.

In the case of G2A A16U G33A G36A C42U, the self-cleavage was 0.04.

As for G2A C15U A26C G27A, the self-cleavage amounted to 0.35.

In the case of G1U G19U A39U, the self-cleavage amounted to 0.14.

G2A A6G G36A: the self-cleavage is 0.37.

For the variant G1U U20A G21A, the self-cleavage was found to be 0.1.

Regarding G2A C10A G44A, the self-cleavage worked out at 0.05.

With G2A C18G G27A C37G, the self-cleavage turned out to be 0.1.

As for G2A A16U G19C A24C C31G A41G, the self-cleavage was 0.03.

Turning to G2A A14U A16G G19C C45G, the self-cleavage worked out at 0.14.

As to G2A C3U G21U U32C, the self-cleavage is 1.98.

Turning to G2A C10A C13G C46A, the self-cleavage came out at 0.02.

With G2A A11C C23A, the self-cleavage turned out to be 0.03.

As to G2A C23G U38A, the self-cleavage came out at 0.04.

On to G2A A11U G33C, for which the self-cleavage was 0.02.

G2A C15A U28C U34A: the self-cleavage was found to be 0.1.

On to G1U G36A U43C, for which the self-cleavage worked out at 0.09.

Regarding G2A G5C C18A, the self-cleavage was 0.03.

For G2A A11C G33U U34C G44A, the self-cleavage was 0.02.

In the case of G2A A6U C18U G27C, the self-cleavage is 0.04.

Turning to G1U U34G U38C, the self-cleavage is 0.03.

For the variant G2A C31A G35U, the self-cleavage is 0.11.

On to G2A C18G C31U, for which the self-cleavage came out at 0.07.

Consider G1U G7U G30U G33A, for which the self-cleavage was found to be 0.14.

For the variant G2A C8U C46A, the self-cleavage is 0.16.

Consider G1U G19U U20A, for which the self-cleavage was 0.06.

Turning to G2A A6C A12C G17U G29A, the self-cleavage worked out at 0.02.

As for G2A C3A C8A G19C, the self-cleavage was found to be 0.36.

Regarding G2A C15U A25G A26U U32G, the self-cleavage worked out at 0.07.

As to G2A A4C U38A, the self-cleavage was 0.53.

Consider G2A C3G G5U U32G, for which the self-cleavage amounted to 0.17.

As to G1U U32A C45U, the self-cleavage was 0.06.

Regarding G2A A6C A11C A16C G29A G33U C37G U43G, the self-cleavage came to 0.

In the case of G1U G2U C3G A12G C18U A24C, the self-cleavage was determined as 0.14.

For G1U G17C U28G, the self-cleavage was determined as 0.36.

In the case of G1U U28G G44U, the self-cleavage was determined as 0.04.

On to G2A A6U G7A G17C U34C G35A, for which the self-cleavage is 0.11.

For the variant G1U U9G C23G C37G G40C C45A, the self-cleavage came to 0.

In the case of G2A C13G G36C, the self-cleavage came to 0.21.

Consider G1U G17A C18U C37A, for which the self-cleavage came out at 0.01.

For G2A C31U U38A, the self-cleavage amounted to 0.08.

On to G2A C3G A11U A25G G27U, for which the self-cleavage stood at 0.1.

As to G2A A24C U32G U38C, the self-cleavage stood at 0.05.

On to G2A C3U G21A G29U G30A C42A G44U, for which the self-cleavage was 0.24.

For G1U G2C C3A G17A A25G U38G C42G, the self-cleavage worked out at 0.13.

As to G2A C23U U32C G33U G35C, the self-cleavage worked out at 0.4.

Regarding G2A A11C G30U, the self-cleavage turned out to be 0.

G2A C10G A14U: the self-cleavage is 0.02.

Regarding G2A C3G G33A, the self-cleavage worked out at 0.34.

Regarding G1U G5U C13G A39G, the self-cleavage was found to be 0.16.

With G2A C8G G29A C42A U43G, the self-cleavage stood at 0.07.

On to G1U G40U G44C, for which the self-cleavage came to 0.18.

For the variant G1U U38C A39U, the self-cleavage stood at 0.16.

As for G2A A14C U20G A26G, the self-cleavage came out at 0.04.

In the case of G2A A4C C18G G27A G33A C37G G40C C42A, the self-cleavage came to 0.01.

As for G2A A4C U9G U28C C46A, the self-cleavage is 0.02.

Turning to G2A A11C C23U C45A, the self-cleavage was determined as 0.02.

Consider G2A C8A C13U U38G, for which the self-cleavage stood at 0.04.

Turning to G1U G7U G40U, the self-cleavage turned out to be 0.04.

For G1U G2U A6G A39C, the self-cleavage was 0.04.

G1U G17C A39C: the self-cleavage is 0.03.

For the variant G1U G7C A12C G29A C37U C42A, the self-cleavage came to 0.02.

For G2A C3U G21U A41G C42A, the self-cleavage came to 0.21.

Turning to G1U U9C G35C, the self-cleavage was found to be 0.02.

With G2A C3A A6C A16U G17U C37G, the self-cleavage was determined as 0.04.

In the case of G2A A6C C18A G22C A24U, the self-cleavage was 0.02.

As to G2A A4G C15U, the self-cleavage came to 0.33.

Take G1U G5A C13U: the self-cleavage came to 0.02.

In the case of G2A C10U U38C, the self-cleavage worked out at 0.1.

As for G2A C8G C45U, the self-cleavage was found to be 0.2.

Turning to G2A A16U G19C, the self-cleavage amounted to 0.29.

Turning to G1U G19U C23U G33U, the self-cleavage stood at 0.03.

Consider G1U U9A G33C, for which the self-cleavage is 0.01.

With G2A A11G C23U, the self-cleavage stood at 0.03.

With G2A C13G U20G G21C C42U G44A C46U, the self-cleavage was determined as 0.17.

For G2A C15U U38G, the self-cleavage came out at 0.17.

In the case of G2A A26U C45A, the self-cleavage came out at 2.46.

With G2A G5U G35U, the self-cleavage worked out at 0.38.

Consider G2A A14U G30U, for which the self-cleavage was 0.15.

Regarding G1U G2U C31A G33C G36C, the self-cleavage was determined as 0.01.

Turning to G1U G7C C37G, the self-cleavage stood at 0.04.

On to G2A C10U A41C, for which the self-cleavage is 0.02.

As to G1U G7A A25G U32G A41C, the self-cleavage stood at 0.03.

As for G1U G17U C23G A24G G33C C37U A41C, the self-cleavage was determined as 0.02.

Turning to G2A G5A C13U G30U G40U, the self-cleavage is 0.13.

Regarding G1U G21U G40C, the self-cleavage stood at 0.03.

On to G2A C10G G29C, for which the self-cleavage worked out at 0.2.

Take G2A C8A C23U C31U: the self-cleavage came out at 1.14.

G1U U9C A16U A24G A26G C42G G44U: the self-cleavage was 0.01.

Take G2A C15U U34C: the self-cleavage came to 0.71.

On to G2A C13U G19A, for which the self-cleavage came out at 2.2.

As for G1U G29A A39U, the self-cleavage came out at 0.34.

In the case of G1U G29C C42G, the self-cleavage turned out to be 0.02.

Take G2A G5A G40U: the self-cleavage is 0.45.

For the variant G1U G7C A41G C46A, the self-cleavage was 0.03.

Consider G2A C3A G40U, for which the self-cleavage is 0.17.

As to G1U G5C A26U G33C, the self-cleavage was determined as 0.02.

Turning to G1U G2C G5U A16G G21A G29A C45A, the self-cleavage was determined as 0.02.

Take G2A C3U G21U: the self-cleavage stood at 0.38.

Consider G2A C13G C18G, for which the self-cleavage came to 0.13.

On to G1U U9A C10A G27A, for which the self-cleavage was 0.01.

Turning to G1U G17U U28G C42U, the self-cleavage worked out at 0.02.

For the variant G2A C8G G21A A39U, the self-cleavage came to 0.11.

For the variant G1U G5U C15A, the self-cleavage is 0.

Consider G1U G40C C42G, for which the self-cleavage is 0.

Consider G1U G30U U32G, for which the self-cleavage amounted to 0.05.

Turning to G1U U9A G17C U34C G40U A41U, the self-cleavage was determined as 0.01.

Regarding G2A A25G C45G C46G, the self-cleavage is 0.55.

Turning to G1U G27U G44U, the self-cleavage was 0.

Consider G1U G19A G22A G44A, for which the self-cleavage is 0.13.

On to G2A A16U G30U, for which the self-cleavage worked out at 0.08.

Take G2A A4G A25C G27U: the self-cleavage was determined as 0.07.

Take G2A A41U C45G: the self-cleavage stood at 0.25.

In the case of G1U G21A C37A, the self-cleavage came out at 0.11.

As to G2A C15G C31G C37U, the self-cleavage is 0.05.

Regarding G2A A4U G7C G22U, the self-cleavage came out at 1.01.

With G1U G5A G21C, the self-cleavage is 0.07.

G2A A6G C10G: the self-cleavage was 0.01.

Consider G1U G5C G17C, for which the self-cleavage was found to be 0.01.

G1U G2A G33U U34G G40C U43C: the self-cleavage worked out at 0.03.

For the variant G2A C23A G29U, the self-cleavage worked out at 0.2.

For the variant G1U G7A U32G, the self-cleavage was determined as 0.08.

On to G1U G7A U32C, for which the self-cleavage was 0.13.

Regarding G2A C8A C15A C18U C23U A25C G40U, the self-cleavage came out at 0.12.

Take G1U G22A G29A: the self-cleavage came to 0.27.

As to G1U U20C G35C, the self-cleavage is 0.01.

G1U G21U A24G: the self-cleavage was found to be 0.64.

For G2A C13U C18A U20C G30A, the self-cleavage was 0.07.

Regarding G1U G5A U9C C37U U38C G40U, the self-cleavage came out at 0.

Take G1U G19C G30A: the self-cleavage was 0.29.

Take G1U G7U G22A: the self-cleavage is 0.03.

As to G1U U20A A25C C31U U34C C46G, the self-cleavage stood at 0.04.

With G2A C3G U38G, the self-cleavage was 0.03.

As for G2A C3U G5A G44C, the self-cleavage turned out to be 0.13.

On to G2A A16G U28G, for which the self-cleavage came to 0.95.

For the variant G2A C10A C23G U38C, the self-cleavage was found to be 0.05.

As for G2A A11U C18U G33C C42A, the self-cleavage was found to be 0.02.

On to G1U G17U U38G G40U, for which the self-cleavage is 0.03.

Turning to G2A A26G U34A, the self-cleavage worked out at 0.07.

Consider G1U G29U U43A, for which the self-cleavage was determined as 0.05.

On to G2A A11C G17U G29A, for which the self-cleavage was 0.02.

Regarding G2A A4U C37G, the self-cleavage turned out to be 0.07.

For the variant G2A C3U G17A G19C G33C A39C, the self-cleavage stood at 0.07.

Consider G2A C8G G19U U34C, for which the self-cleavage was determined as 0.07.

Consider G2A A12G U43C, for which the self-cleavage was determined as 0.06.

G1U G27U G36C C37A: the self-cleavage was found to be 0.04.
